T1: Kif3B (human kinesin-2 motor subunit), full length (human, UniProt O15066 1-747)
T1 construct: Kif3B, human, synthesised gene, full-length subunit; source: Sf9 (baculovirus), coexpressed with Kif3A, purified (IgG Sepharose, TEV elution, SEC); not shown: ZZ, N-terminal, cleaved
T1 sequence (looked up): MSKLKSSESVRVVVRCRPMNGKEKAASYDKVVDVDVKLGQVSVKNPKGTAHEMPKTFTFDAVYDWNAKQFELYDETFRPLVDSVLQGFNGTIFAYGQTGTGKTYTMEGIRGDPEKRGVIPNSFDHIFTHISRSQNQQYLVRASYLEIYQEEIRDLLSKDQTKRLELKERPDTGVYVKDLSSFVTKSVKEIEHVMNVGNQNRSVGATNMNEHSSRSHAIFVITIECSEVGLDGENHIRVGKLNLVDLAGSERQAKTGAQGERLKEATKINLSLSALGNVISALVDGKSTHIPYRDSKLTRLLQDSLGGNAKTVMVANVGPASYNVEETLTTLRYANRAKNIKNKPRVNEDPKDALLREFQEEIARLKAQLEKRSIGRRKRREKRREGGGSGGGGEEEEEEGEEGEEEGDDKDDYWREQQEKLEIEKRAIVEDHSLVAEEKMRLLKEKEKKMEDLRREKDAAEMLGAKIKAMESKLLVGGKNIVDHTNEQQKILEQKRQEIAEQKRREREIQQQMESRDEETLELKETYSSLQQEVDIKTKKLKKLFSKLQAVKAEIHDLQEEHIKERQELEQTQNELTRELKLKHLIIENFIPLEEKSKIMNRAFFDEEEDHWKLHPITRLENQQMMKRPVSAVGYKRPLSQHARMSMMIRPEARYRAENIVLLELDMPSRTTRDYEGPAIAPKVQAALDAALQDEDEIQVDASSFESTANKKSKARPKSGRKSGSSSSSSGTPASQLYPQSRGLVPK


What follows are binders tested against T1, Kif3B (human kinesin-2 motor subunit), … (assay: SEC; motor subunits coexpressed in Sf9, purified through the ZZ tag of Kif3B/C on IgG Sepharose, TEV elution, Superose 6 Increase 3.2/300 in buffer A (50 mM Tris-HCl pH 7.5, 150 mM K-acetate, 2 mM Mg-acetate, 5% glycerol, 1 mM DTT, 0.2 mM Mg-ATP); SDS-PAGE of peak fraction). Conditions: both partners purified.

Binder | binding result
Kif3A^ΔC38 (domain or fragment, Kif3A, human, 38 amino acids truncated from the C terminus; also called Kif3A truncated by 38 C-terminal amino acids; source: Sf9 (baculovirus), coexpressed with Kif3B, purified (IgG Sepharose, TEV elution, SEC); not shown: SNAPf, C-terminal, kept) not shown | binds
Kif3A^ΔC59 (domain or fragment, Kif3A, human, 59 amino acids truncated from the C terminus; also called Kif3A truncated by 59 C-terminal amino acids; source: Sf9 (baculovirus), coexpressed with Kif3B, purified (IgG Sepharose, TEV elution, SEC); not shown: SNAPf, C-terminal, kept) not shown | binds
Kif3A^ΔC89 (domain or fragment, Kif3A, human, 89 amino acids truncated from the C terminus; also called Kif3A^Δ89; source: Sf9 (baculovirus), coexpressed with Kif3B, purified (IgG Sepharose, TEV elution, SEC); not shown: SNAPf, C-terminal, kept) not shown | binds

What follows are binders tested against microtubules polymerized from porcine tubulin (porcine, UniProt P02550; Q767L7) (assay: single-molecule TIRF microtubule binding and motility; biotinylated Alexa Fluor 488 microtubules held on neutravidin; 0.15–40 nM Alexa-Fluor-647-labelled motor in buffer B (50 mM Tris-HCl pH 8.0, 50 mM KCl, 2 mM MgCl2, 1 mM EGTA) with 1 mM Mg-ATP, 25 °C). Conditions: both partners purified.

Binder | landing rate
Kif3A^ΔC89–Kif3B heterodimer (ΔInt1) (complex, Kif3A, human, 89 amino acids truncated from the C terminus (within the β-hairpin motif); Kif3B, human, synthesised gene, full-length subunit; also called Kif3A^Δ89B; source: Sf9 (baculovirus), coexpressed, purified (IgG Sepharose, TEV elution, SEC); not shown: SNAPf, C-terminal, kept; ZZ, N-terminal, cleaved) chain 1: [about 600 residues omitted] chain 2: MSKLKSSESVRVVVRCRPMNGKEKAASYDKVVDVDVKLGQVSVKNPKGTAHEMPKTFTFDAVYDWNAKQFELYDETFRPLVDSVLQGFNGTIFAYGQTGTGKTYTMEGIRGDPEKRGVIPNSFDHIFTHISRSQNQQYLVRASYLEIYQEEIRDLLSKDQTKRLELKERPDTGVYVKDLSSFVTKSVKEIEHVMNVGNQNRSVGATNMNEHSSRSHAIFVITIECSEVGLDGENHIRVGKLNLVDLAGSERQAKTGAQGERLKEATKINLSLSALGNVISALVDGKSTHIPYRDSKLTRLLQDSLGGNAKTVMVANVGPASYNVEETLTTLRYANRAKNIKNKPRVNEDPKDALLREFQEEIARLKAQLEKRSIGRRKRREKRREGGGSGGGGEEEEEEGEEGEEEGDDKDDYWREQQEKLEIEKRAIVEDHSLVAEEKMRLLKEKEKKMEDLRREKDAAEMLGAKIKAMESKLLVGGKNIVDHTNEQQKILEQKRQEIAEQKRREREIQQQMESRDEETLELKETYSSLQQEVDIKTKKLKKLFSKLQAVKAEIHDLQEEHIKERQELEQTQNELTRELKLKHLIIENFIPLEEKSKIMNRAFFDEEEDHWKLHPITRLENQQMMKRPVSAVGYKRPLSQHARMSMMIRPEARYRAENIVLLELDMPSRTTRDYEGPAIAPKVQAALDAALQDEDEIQVDASSFESTANKKSKARPKSGRKSGSSSSSSGTPASQLYPQSRGLVPK | ~0.6 μm^−1 nM^−1 min^−1
Kif3A^ΔC103–Kif3B heterodimer (complex, Kif3A, human, 103 amino acids truncated from the C terminus (beyond the β-hairpin motif); Kif3B, human, synthesised gene, full-length subunit; SNAPf on Kif3A labelled with Alexa Fluor 647; also called Kif3A^Δ103B; source: Sf9 (baculovirus), coexpressed, purified (IgG Sepharose, TEV elution, SEC); not shown: SNAPf, C-terminal, kept; ZZ, N-terminal, cleaved) chain 1: [about 600 residues omitted] chain 2: MSKLKSSESVRVVVRCRPMNGKEKAASYDKVVDVDVKLGQVSVKNPKGTAHEMPKTFTFDAVYDWNAKQFELYDETFRPLVDSVLQGFNGTIFAYGQTGTGKTYTMEGIRGDPEKRGVIPNSFDHIFTHISRSQNQQYLVRASYLEIYQEEIRDLLSKDQTKRLELKERPDTGVYVKDLSSFVTKSVKEIEHVMNVGNQNRSVGATNMNEHSSRSHAIFVITIECSEVGLDGENHIRVGKLNLVDLAGSERQAKTGAQGERLKEATKINLSLSALGNVISALVDGKSTHIPYRDSKLTRLLQDSLGGNAKTVMVANVGPASYNVEETLTTLRYANRAKNIKNKPRVNEDPKDALLREFQEEIARLKAQLEKRSIGRRKRREKRREGGGSGGGGEEEEEEGEEGEEEGDDKDDYWREQQEKLEIEKRAIVEDHSLVAEEKMRLLKEKEKKMEDLRREKDAAEMLGAKIKAMESKLLVGGKNIVDHTNEQQKILEQKRQEIAEQKRREREIQQQMESRDEETLELKETYSSLQQEVDIKTKKLKKLFSKLQAVKAEIHDLQEEHIKERQELEQTQNELTRELKLKHLIIENFIPLEEKSKIMNRAFFDEEEDHWKLHPITRLENQQMMKRPVSAVGYKRPLSQHARMSMMIRPEARYRAENIVLLELDMPSRTTRDYEGPAIAPKVQAALDAALQDEDEIQVDASSFESTANKKSKARPKSGRKSGSSSSSSGTPASQLYPQSRGLVPK | ~0.6 μm^−1 nM^−1 min^−1
Kif3A^ΔC103–Kif3B^ΔC90 heterodimer (complex, Kif3A, human, 103 amino acids truncated from the C terminus; Kif3B, human, 90 amino acids truncated from the C terminus; SNAPf on Kif3A labelled with Alexa Fluor 647; also called Kif3A^Δ103B^Δ90; source: Sf9 (baculovirus), coexpressed, purified (IgG Sepharose, TEV elution, SEC); not shown: SNAPf, C-terminal, kept; ZZ, N-terminal, cleaved) chain 1: [about 600 residues omitted] chain 2: MSKLKSSESVRVVVRCRPMNGKEKAASYDKVVDVDVKLGQVSVKNPKGTAHEMPKTFTFDAVYDWNAKQFELYDETFRPLVDSVLQGFNGTIFAYGQTGTGKTYTMEGIRGDPEKRGVIPNSFDHIFTHISRSQNQQYLVRASYLEIYQEEIRDLLSKDQTKRLELKERPDTGVYVKDLSSFVTKSVKEIEHVMNVGNQNRSVGATNMNEHSSRSHAIFVITIECSEVGLDGENHIRVGKLNLVDLAGSERQAKTGAQGERLKEATKINLSLSALGNVISALVDGKSTHIPYRDSKLTRLLQDSLGGNAKTVMVANVGPASYNVEETLTTLRYANRAKNIKNKPRVNEDPKDALLREFQEEIARLKAQLEKRSIGRRKRREKRREGGGSGGGGEEEEEEGEEGEEEGDDKDDYWREQQEKLEIEKRAIVEDHSLVAEEKMRLLKEKEKKMEDLRREKDAAEMLGAKIKAMESKLLVGGKNIVDHTNEQQKILEQKRQEIAEQKRREREIQQQMESRDEETLELKETYSSLQQEVDIKTKKLKKLFSKLQAVKAEIHDLQEEHIKERQELEQTQNELTRELKLKHLIIENFIPLEEKSKIMNRAFFDEEEDHWKLHPITRLENQQMMKRPVSAVGYKRPLSQHARMSMMIRPEARYRA | ~3.2 μm^−1 nM^−1 min^−1

From paper PMC12527917, “Regulation of kinesin-2 motility by its β-hairpin motif” (Nature Structural & Molecular Biology, 2025)
